From article PMC8664570
No constants are given. Whether binding was seen depends on the method and setting. Some binding calls cover weakened binding; strength is not graded here. Where a sequence is shown, tags or fusion partners need not be part of it. Each block holds one molecule with its values, some of them ahead of it.

The chains behind the UniProt entries cited, without tags or fusion partners.
UniProt A0A1C3NSL9: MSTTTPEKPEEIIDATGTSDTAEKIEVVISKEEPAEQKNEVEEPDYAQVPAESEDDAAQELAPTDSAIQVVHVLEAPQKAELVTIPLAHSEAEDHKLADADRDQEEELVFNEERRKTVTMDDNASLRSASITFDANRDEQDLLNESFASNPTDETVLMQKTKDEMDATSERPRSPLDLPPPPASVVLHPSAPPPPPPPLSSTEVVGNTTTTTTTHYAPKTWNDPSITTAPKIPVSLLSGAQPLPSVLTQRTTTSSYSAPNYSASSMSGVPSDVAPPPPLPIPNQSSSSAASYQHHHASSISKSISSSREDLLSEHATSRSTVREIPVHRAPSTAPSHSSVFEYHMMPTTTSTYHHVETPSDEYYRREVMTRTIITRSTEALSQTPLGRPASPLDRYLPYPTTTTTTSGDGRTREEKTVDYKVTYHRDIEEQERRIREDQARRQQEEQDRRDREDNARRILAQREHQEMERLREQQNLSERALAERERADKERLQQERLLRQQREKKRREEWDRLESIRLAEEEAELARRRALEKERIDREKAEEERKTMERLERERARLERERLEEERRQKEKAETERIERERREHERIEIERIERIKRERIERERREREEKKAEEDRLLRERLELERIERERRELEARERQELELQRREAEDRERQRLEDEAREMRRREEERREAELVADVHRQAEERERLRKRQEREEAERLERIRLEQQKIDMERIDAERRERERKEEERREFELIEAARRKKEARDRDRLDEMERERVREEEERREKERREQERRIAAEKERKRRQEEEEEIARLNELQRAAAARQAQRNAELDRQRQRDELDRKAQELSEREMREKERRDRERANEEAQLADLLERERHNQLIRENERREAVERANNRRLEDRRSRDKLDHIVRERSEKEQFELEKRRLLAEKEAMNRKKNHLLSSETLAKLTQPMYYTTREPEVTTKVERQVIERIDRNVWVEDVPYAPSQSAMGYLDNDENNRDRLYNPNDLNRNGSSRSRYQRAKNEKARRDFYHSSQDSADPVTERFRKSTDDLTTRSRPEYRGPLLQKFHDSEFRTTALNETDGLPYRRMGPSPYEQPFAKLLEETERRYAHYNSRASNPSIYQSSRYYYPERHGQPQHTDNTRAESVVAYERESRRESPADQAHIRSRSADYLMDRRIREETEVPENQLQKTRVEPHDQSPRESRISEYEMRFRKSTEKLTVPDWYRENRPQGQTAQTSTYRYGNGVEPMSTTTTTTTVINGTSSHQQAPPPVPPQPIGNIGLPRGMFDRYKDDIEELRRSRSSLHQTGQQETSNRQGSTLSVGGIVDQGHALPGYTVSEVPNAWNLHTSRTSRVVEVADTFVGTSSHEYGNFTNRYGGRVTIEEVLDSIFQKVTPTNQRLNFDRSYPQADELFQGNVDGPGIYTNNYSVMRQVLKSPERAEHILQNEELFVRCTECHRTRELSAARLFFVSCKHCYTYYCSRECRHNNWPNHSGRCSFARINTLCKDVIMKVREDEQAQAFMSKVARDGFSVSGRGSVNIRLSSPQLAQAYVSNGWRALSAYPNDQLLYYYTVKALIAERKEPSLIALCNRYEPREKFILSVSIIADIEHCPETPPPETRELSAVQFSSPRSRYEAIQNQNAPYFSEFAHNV

How the values were obtained:
Test in all cases: light-induced coclustering (CeLINC), fluorescence microscopy; in live C. elegans larvae (L2-L4), intestine and/or epidermis; GFP-tagged bait trapped by CRY2(olig)::VHH(GFP) in CRY2(olig)/CIBN-MP clusters, clusters preactivated by white light during mounting; coclustering of the prey of another colour scored (images, ComDet); cannot tell direct from indirect interactions
[1] = biological target: T1, DLG-1::GFP (endogenous tag) (C. elegans) (UniProt G5ECY0)
T1 sequence: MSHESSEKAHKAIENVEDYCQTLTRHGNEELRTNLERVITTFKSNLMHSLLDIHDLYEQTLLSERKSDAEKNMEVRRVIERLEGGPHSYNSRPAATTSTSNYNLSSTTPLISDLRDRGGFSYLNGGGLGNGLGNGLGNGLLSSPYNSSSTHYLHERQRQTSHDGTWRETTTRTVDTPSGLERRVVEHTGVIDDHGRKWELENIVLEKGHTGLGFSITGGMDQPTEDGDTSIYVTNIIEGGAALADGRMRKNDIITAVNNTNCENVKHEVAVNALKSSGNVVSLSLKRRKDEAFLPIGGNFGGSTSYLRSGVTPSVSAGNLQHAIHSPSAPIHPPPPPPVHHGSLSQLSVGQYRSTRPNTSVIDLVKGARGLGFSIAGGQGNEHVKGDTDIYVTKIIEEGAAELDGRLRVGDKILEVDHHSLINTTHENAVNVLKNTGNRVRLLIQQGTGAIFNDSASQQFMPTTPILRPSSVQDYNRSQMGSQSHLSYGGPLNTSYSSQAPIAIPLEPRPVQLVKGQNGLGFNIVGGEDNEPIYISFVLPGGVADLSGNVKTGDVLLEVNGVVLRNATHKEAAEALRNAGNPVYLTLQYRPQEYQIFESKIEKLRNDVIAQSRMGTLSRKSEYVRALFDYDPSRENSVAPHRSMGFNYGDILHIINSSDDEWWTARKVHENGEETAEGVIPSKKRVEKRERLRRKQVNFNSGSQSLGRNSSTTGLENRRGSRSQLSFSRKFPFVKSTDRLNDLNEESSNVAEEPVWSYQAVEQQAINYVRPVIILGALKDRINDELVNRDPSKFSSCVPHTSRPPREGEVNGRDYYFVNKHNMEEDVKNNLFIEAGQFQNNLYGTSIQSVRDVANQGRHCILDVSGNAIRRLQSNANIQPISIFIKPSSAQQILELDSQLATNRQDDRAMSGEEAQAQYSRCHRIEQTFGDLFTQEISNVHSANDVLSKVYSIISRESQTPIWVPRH

[2] = biological target: T2, DLG-1::GFP (expressed from the elt-2 promoter) (C. elegans) (UniProt G5ECY0)
T2 sequence: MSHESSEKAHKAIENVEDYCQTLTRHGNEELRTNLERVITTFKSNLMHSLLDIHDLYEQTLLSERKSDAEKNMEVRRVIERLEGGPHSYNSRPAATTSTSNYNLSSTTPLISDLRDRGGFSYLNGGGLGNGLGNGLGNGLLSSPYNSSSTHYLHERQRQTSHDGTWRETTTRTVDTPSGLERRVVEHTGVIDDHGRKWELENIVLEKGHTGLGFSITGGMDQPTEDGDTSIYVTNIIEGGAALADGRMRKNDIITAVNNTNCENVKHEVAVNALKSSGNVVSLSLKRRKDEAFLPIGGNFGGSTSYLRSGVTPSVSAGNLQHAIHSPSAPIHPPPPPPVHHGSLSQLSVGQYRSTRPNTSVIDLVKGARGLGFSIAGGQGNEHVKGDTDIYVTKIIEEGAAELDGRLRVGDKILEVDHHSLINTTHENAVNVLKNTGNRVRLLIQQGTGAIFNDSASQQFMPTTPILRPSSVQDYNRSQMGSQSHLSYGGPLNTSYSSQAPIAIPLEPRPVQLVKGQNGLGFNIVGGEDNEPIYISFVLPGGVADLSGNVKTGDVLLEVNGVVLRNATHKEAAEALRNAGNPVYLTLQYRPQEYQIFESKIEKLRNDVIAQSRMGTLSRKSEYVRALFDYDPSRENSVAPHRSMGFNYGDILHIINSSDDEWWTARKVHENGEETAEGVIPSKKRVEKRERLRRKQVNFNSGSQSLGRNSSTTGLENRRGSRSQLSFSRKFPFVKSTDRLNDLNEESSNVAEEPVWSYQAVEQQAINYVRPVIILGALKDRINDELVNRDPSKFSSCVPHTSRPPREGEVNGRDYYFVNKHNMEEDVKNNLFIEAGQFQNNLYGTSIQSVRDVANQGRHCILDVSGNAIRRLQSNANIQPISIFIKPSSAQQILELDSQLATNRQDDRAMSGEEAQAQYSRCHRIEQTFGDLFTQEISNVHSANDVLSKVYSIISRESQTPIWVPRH

[3] = biological target: T3, DLG-1 (endogenously tagged, as tested with LET-413 and LGL-1) (C. elegans) (UniProt G5ECY0)
T3 sequence: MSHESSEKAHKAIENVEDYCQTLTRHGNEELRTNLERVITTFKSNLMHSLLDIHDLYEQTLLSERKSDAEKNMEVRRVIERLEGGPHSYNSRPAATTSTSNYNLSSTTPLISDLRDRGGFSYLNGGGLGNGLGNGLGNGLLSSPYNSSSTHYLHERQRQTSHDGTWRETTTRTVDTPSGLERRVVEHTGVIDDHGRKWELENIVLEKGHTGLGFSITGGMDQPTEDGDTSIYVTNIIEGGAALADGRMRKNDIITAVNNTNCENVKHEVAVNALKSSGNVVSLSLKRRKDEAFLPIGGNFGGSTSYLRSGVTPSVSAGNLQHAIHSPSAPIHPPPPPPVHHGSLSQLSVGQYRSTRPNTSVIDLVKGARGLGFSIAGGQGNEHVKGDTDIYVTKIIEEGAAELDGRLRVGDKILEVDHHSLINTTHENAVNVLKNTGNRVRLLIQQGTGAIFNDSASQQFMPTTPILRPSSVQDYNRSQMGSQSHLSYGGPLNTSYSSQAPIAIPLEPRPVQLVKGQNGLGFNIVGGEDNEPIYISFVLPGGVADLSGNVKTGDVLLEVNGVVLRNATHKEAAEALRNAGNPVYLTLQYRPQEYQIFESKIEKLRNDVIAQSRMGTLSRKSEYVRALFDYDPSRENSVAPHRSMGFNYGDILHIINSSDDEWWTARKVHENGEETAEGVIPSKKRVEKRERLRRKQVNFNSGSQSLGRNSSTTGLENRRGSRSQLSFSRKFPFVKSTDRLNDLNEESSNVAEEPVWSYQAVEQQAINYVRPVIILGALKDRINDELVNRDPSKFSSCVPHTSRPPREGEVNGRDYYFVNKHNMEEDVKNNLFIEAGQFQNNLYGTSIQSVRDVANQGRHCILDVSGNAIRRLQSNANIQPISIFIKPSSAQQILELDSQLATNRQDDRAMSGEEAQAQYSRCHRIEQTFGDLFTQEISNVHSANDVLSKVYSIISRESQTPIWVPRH

GFP::PKC-3 (C. elegans) = biological target: T4, GFP::PKC-3 (C. elegans) (UniProt Q19266)
T4 sequence: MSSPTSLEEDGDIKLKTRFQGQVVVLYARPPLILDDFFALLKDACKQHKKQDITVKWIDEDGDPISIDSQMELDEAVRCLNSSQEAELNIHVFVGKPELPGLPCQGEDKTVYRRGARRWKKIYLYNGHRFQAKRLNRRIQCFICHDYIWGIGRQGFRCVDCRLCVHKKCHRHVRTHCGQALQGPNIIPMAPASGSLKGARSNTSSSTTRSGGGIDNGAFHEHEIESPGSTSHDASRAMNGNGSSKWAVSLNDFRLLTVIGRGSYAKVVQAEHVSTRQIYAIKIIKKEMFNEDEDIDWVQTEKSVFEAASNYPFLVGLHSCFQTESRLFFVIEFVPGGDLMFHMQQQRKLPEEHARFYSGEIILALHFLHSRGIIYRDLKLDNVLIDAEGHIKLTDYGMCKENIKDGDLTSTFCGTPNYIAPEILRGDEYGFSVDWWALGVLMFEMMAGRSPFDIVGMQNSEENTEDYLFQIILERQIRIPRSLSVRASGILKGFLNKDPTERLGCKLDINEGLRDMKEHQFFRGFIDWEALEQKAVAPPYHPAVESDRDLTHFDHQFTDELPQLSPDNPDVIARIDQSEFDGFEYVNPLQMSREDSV

[4] = biological target: T5, LET-413 (endogenously tagged) (C. elegans) (UniProt O61967)
T5 sequence: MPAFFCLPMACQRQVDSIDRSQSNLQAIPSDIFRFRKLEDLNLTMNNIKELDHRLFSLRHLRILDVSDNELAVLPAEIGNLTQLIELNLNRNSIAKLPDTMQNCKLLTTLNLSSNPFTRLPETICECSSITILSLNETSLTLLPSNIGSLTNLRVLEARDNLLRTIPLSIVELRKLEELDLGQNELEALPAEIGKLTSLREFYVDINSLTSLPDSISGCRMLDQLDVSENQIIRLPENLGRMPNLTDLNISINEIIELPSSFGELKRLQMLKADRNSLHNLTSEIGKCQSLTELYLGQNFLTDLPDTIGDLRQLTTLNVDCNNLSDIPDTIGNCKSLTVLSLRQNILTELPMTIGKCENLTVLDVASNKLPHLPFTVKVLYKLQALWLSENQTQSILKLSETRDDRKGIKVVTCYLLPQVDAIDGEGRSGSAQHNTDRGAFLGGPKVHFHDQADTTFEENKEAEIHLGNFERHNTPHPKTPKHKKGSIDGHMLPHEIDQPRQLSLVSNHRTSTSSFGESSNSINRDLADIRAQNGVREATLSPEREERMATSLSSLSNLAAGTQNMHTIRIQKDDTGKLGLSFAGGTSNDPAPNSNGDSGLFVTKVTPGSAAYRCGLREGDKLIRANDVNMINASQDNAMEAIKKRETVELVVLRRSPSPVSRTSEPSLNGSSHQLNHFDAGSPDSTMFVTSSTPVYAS

Molecule: AJM-1::mCherry (multicopy insertion) (from UniProt A0A1C3NSL9 1-1644)
binding [1]: binds

Molecule: AJM-1::mCherry (expressed from the elt-2 promoter) (from UniProt A0A1C3NSL9 1-1644)
binding [2]: binds

Results, then the molecule that gave them:

binding [3]: no binding
B1: LET-413 (endogenously tagged) (protein, UniProt O61967 1-699)
chain: MPAFFCLPMACQRQVDSIDRSQSNLQAIPSDIFRFRKLEDLNLTMNNIKELDHRLFSLRHLRILDVSDNELAVLPAEIGNLTQLIELNLNRNSIAKLPDTMQNCKLLTTLNLSSNPFTRLPETICECSSITILSLNETSLTLLPSNIGSLTNLRVLEARDNLLRTIPLSIVELRKLEELDLGQNELEALPAEIGKLTSLREFYVDINSLTSLPDSISGCRMLDQLDVSENQIIRLPENLGRMPNLTDLNISINEIIELPSSFGELKRLQMLKADRNSLHNLTSEIGKCQSLTELYLGQNFLTDLPDTIGDLRQLTTLNVDCNNLSDIPDTIGNCKSLTVLSLRQNILTELPMTIGKCENLTVLDVASNKLPHLPFTVKVLYKLQALWLSENQTQSILKLSETRDDRKGIKVVTCYLLPQVDAIDGEGRSGSAQHNTDRGAFLGGPKVHFHDQADTTFEENKEAEIHLGNFERHNTPHPKTPKHKKGSIDGHMLPHEIDQPRQLSLVSNHRTSTSSFGESSNSINRDLADIRAQNGVREATLSPEREERMATSLSSLSNLAAGTQNMHTIRIQKDDTGKLGLSFAGGTSNDPAPNSNGDSGLFVTKVTPGSAAYRCGLREGDKLIRANDVNMINASQDNAMEAIKKRETVELVVLRRSPSPVSRTSEPSLNGSSHQLNHFDAGSPDSTMFVTSSTPVYAS

binding (GFP::PKC-3 (C. elegans)): no binding
B2: mKate2::PAR-6(ΔPB1) (protein, UniProt Q9NAN2)
chain: MSYNGSYHQNHHSTSIPMHSASGVSYDGFRSLVEKLHHLESVQFTLCYNSTGGDLLPITNDDNLRKSFESARPLLRLLIQRRGESWEEKYGYGTDSDKRWKGISSLMAQKPPKRSYSISNPEDFRQVSAIIDVDIVPEAHRRVRLCKHGQERPLGFYIRDGTSVRVTERGVVKVSGIFISRLVDGGLAESTGLLGVNDEVLEVNGIEVLGKTLDQVTDMMVANAHNLIITVKPANQRNTLSRGPSQQGTPNASEMSAATAAATGGIQRPMKMNGSSDGSYHPKQHDANDSDSGED

binding (GFP::PKC-3 (C. elegans)): binds
B3: mKate2::PAR-6 (protein, UniProt Q9NAN2 1-309)
chain: MSYNGSYHQNHHSTLQVKSKFDSEWRRFSIPMHSASGVSYDGFRSLVEKLHHLESVQFTLCYNSTGGDLLPITNDDNLRKSFESARPLLRLLIQRRGESWEEKYGYGTDSDKRWKGISSLMAQKPPKRSYSISNPEDFRQVSAIIDVDIVPEAHRRVRLCKHGQERPLGFYIRDGTSVRVTERGVVKVSGIFISRLVDGGLAESTGLLGVNDEVLEVNGIEVLGKTLDQVTDMMVANAHNLIITVKPANQRNTLSRGPSQQGTPNASEMSAATAAATGGIQRPMKMNGSSDGSYHPKQHDANDSDSGED

binding [4]: no binding
B4: DLG-1 (endogenously tagged, as tested with LET-413 and LGL-1) (protein, UniProt G5ECY0 1-967)
chain: MSHESSEKAHKAIENVEDYCQTLTRHGNEELRTNLERVITTFKSNLMHSLLDIHDLYEQTLLSERKSDAEKNMEVRRVIERLEGGPHSYNSRPAATTSTSNYNLSSTTPLISDLRDRGGFSYLNGGGLGNGLGNGLGNGLLSSPYNSSSTHYLHERQRQTSHDGTWRETTTRTVDTPSGLERRVVEHTGVIDDHGRKWELENIVLEKGHTGLGFSITGGMDQPTEDGDTSIYVTNIIEGGAALADGRMRKNDIITAVNNTNCENVKHEVAVNALKSSGNVVSLSLKRRKDEAFLPIGGNFGGSTSYLRSGVTPSVSAGNLQHAIHSPSAPIHPPPPPPVHHGSLSQLSVGQYRSTRPNTSVIDLVKGARGLGFSIAGGQGNEHVKGDTDIYVTKIIEEGAAELDGRLRVGDKILEVDHHSLINTTHENAVNVLKNTGNRVRLLIQQGTGAIFNDSASQQFMPTTPILRPSSVQDYNRSQMGSQSHLSYGGPLNTSYSSQAPIAIPLEPRPVQLVKGQNGLGFNIVGGEDNEPIYISFVLPGGVADLSGNVKTGDVLLEVNGVVLRNATHKEAAEALRNAGNPVYLTLQYRPQEYQIFESKIEKLRNDVIAQSRMGTLSRKSEYVRALFDYDPSRENSVAPHRSMGFNYGDILHIINSSDDEWWTARKVHENGEETAEGVIPSKKRVEKRERLRRKQVNFNSGSQSLGRNSSTTGLENRRGSRSQLSFSRKFPFVKSTDRLNDLNEESSNVAEEPVWSYQAVEQQAINYVRPVIILGALKDRINDELVNRDPSKFSSCVPHTSRPPREGEVNGRDYYFVNKHNMEEDVKNNLFIEAGQFQNNLYGTSIQSVRDVANQGRHCILDVSGNAIRRLQSNANIQPISIFIKPSSAQQILELDSQLATNRQDDRAMSGEEAQAQYSRCHRIEQTFGDLFTQEISNVHSANDVLSKVYSIISRESQTPIWVPRH
